Results from PubChem BioAssay AID485294 (National Center for Advancing Translational Sciences (NCATS), 2010).
Screen size: about 370,000 compounds; about 150 (0.041%) were called active. This list was built around the results that the source calls inconclusive (neither active nor inactive); the mix of calls is not that of the screen. Calls come from the whole dose curve; as a rule, active = well fitted inhibition curve with a large enough effect; inconclusive = small, poorly fitted or top-dose-only effect; inactive = flat fitted curve, though single readings scatter. No potency is given beside an inconclusive call; the fits are too rough.
Note: nearly all actives have a fitted effect of over 25% in size.
Potency is the fitted concentration of half-maximal effect; tags give direction and shape of the fitted curve.
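Throughout, for activity change, negative = inhibition: 0% = no-compound wells and -100% = no-enzyme wells.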

The compounds below were run against Beta-lactamase (Escherichia coli (strain K12)) (UniProt P00811) (assay: qHTS Inhibitors of AmpC Beta-Lactamase (assay with detergent)). Conditions: AmpC hydrolysis of nitrocefin, absorbance 480 nm, 0.01% Triton; activity change, negative = inhibition: at 114 µM (top of the series).
Sequence of UniProt P00811 (P00811 whole entry, looked up): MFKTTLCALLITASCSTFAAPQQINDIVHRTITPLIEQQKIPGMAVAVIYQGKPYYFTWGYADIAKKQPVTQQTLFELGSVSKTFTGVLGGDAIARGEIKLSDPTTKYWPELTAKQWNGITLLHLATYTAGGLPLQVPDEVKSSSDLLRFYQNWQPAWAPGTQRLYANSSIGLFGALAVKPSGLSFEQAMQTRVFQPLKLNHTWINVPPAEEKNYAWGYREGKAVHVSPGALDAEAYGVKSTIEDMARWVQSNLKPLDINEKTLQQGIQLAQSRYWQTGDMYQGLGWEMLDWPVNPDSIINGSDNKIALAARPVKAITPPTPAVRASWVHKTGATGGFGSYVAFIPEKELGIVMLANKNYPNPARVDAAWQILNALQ
Outline: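 20 mM phosphate pH 7.0 + 0.01% (detergent screen) or 0.0001% Triton X-100; 5.3 nM AmpC reagent; cpd preinc 15 min RT; nitrocefin (800 uM stock) to start; A480 q20 s × 4 min; Activity was normalised to no-enzyme and no-compound control wells.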
`CC1CCC(NC(=O)Nc2cccs2)CC1` (stereo unspecified) was tested, and the “activity change, negative = inhibition” value was inactive: 1.18%. `Cc1cc(C)c2c(=O)[nH]n(C3CC(C)N(C)CC3C)c2n1` (stereo unspecified) was tested, and the Potency was inconclusive [inhibitor, full curve, poor fit]. `Cc1ccc(O)c(CNc2nc3ccccc3n2C(C)C)c1` was tested, and the Potency was inconclusive [inhibitor, full curve]. In the case of `COc1ccc([C@H]2[C@H](C(=O)C(C)(C)C)N3N=Cc4ccccc4C3C23C(=O)OC(C)(C)OC3=O)cc1` (stereo partly specified), the “activity change, negative = inhibition” value is reported as inactive: -3.78%. For `Nc1nc(-c2cc(O)ccc2[N+](=O)[O-])cc(-c2ccccc2)c1[N+](=O)[O-]`, the “activity change, negative = inhibition” value was inactive: -11.7%. In the case of `Nn1c(SCC(=O)N2CCCc3ccccc32)nncc1=O`, the Potency is reported as inconclusive [inhibitor, partial curve]. In the case of `Cc1nn(C)c(C)c1CNC(=O)c1cc2n(n1)C(C(F)(F)F)CC(c1cccs1)N2` (stereo unspecified), the Potency is reported as inconclusive [inhibitor, partial curve]. With `CCc1noc(-c2ccc(NC(C)c3ccccc3)c([N+](=O)[O-])c2)n1` (stereo unspecified) the “activity change, negative = inhibition” value was inactive: 19.9%. For `CCCNS(=O)(=O)c1ccc(CCC(=O)N2CCCCC2)cc1`, the Potency was inconclusive [inhibitor, partial curve]. For `CCOc1ccccc1C1C(C#N)=C(N)Oc2cc(C)n(Cc3ccccn3)c(=O)c21` (stereo unspecified), the Potency was inconclusive [inhibitor, full curve]. For `Cc1c(NC(=O)/C(C#N)=C/c2ccc(-c3ccc(Cl)cc3)o2)c(=O)n(-c2ccccc2)n1C`, the “activity change, negative = inhibition” value was inactive: -4.14%. With `COc1ccc(C(=O)N2CCc3cc(OC)c(OC)cc3C2c2cccc([N+](=O)[O-])c2)cc1OC` (stereo unspecified) the “activity change, negative = inhibition” value was inactive: 2.31%. In the case of `COc1ccccc1N1CCN(C(=O)c2cc3c(=O)n4ccccc4nc3s2)CC1`, the Potency is reported as inconclusive [inhibitor, partial curve]. For `O=C(Nc1ccc(N2CCOCC2)cc1)C1CC1`, the Potency was inconclusive [inhibitor, single point]. For `Fc1ccc(CO/N=C/C2=C(Cl)c3ccccc3CC2)cc1`, the Potency was inconclusive [inhibitor, full curve, poor fit]. With `O=C(NCCCn1ccnc1)Nc1cccc2ccccc12` the Potency was inconclusive [inhibitor, partial curve]. In the case of `N#C/C(=C\c1ccc(-c2ccccc2C(=O)O)o1)c1nc2ccccc2[nH]1`, the Potency is reported as inconclusive [inhibitor, partial curve]. For `Cc1ccc(/C=N/NC(=O)CSc2nc3ccccc3c(=O)n2-c2ccccc2)s1`, the Potency was inconclusive [inhibitor, single point]. `CC(=O)c1ccc(S(=O)(=O)Nc2ccc(N3CCOCC3)cc2)cc1` was tested, and the Potency was inconclusive [inhibitor, partial curve]. With `Cn1cc(-c2nnnn2-c2ccc(Cl)cc2)c(=O)c2ccccc21` the Potency was inconclusive [inhibitor, full curve, poor fit]. With `CCN(CC)CCCN(Cc1cc2cc3c(cc2[nH]c1=O)OCO3)C(=S)NCCOC` the Potency was inconclusive [inhibitor, full curve]. With `Cc1ccc(C(=O)N/C(=C/c2ccccc2)C(=O)NCC2CCCO2)cc1` (stereo unspecified) the Potency was inconclusive [inhibitor, full curve, poor fit]. `O=C(Nc1ccc(F)cc1)NC1CCCCCCC1` was tested, and the “activity change, negative = inhibition” value was inactive: -13.4%. With `CC1CCCN(C(=O)COC(=O)Cc2c[nH]c3ccccc23)C1` (stereo unspecified) the Potency was inconclusive [inhibitor, full curve, poor fit]. With `O=C(COC(=O)c1cccc([N+](=O)[O-])c1)NC1CCCC1` the Potency was inconclusive [inhibitor, single point]. For `O=C1CCCC2=C1C(c1cccs1)n1nc(SCc3ccccc3)nc1N2` (stereo unspecified), the Potency was inconclusive [inhibitor, partial curve, poor fit]. For `COC(=O)c1ccc(CNC(=O)/C=C/c2cc([N+](=O)[O-])ccc2OC(F)F)cc1`, the “activity change, negative = inhibition” value was inactive: -0.424%. For `O=C(CN1C(=O)COc2ccccc21)N1CCCC1`, the Potency was inconclusive [inhibitor, full curve, poor fit]. `COC(=O)[C@H]1C[C@@H]1[C@H](NS(=O)(=O)c1ccccc1)c1ccccc1` was tested, and the Potency was inconclusive [inhibitor, partial curve, poor fit]. In the case of `S=C(Nc1ccc(Br)cc1)NC1CCCCC1`, the “activity change, negative = inhibition” value is reported as inactive: -6.96%. In the case of `COc1ccc2c(c1)N(C(=O)CN1C(=O)C3CCCCC3C1=O)C(C)(C)C=C2C` (stereo unspecified), the “activity change, negative = inhibition” value is reported as inactive: 5.64%. In the case of `O=C(O)c1ccc(N2Cc3ccccc3C2)cc1O`, the “activity change, negative = inhibition” value is reported as inactive: -3.96%. With `Cc1ccccc1C(=O)Nc1ccc(S(=O)(=O)N2CCCC2)cc1` the Potency was inconclusive [inhibitor, single point]. `C=CCNS(=O)(=O)c1ccc(C(=O)OCc2cc(=O)oc3cc(OC)ccc23)cc1` was tested, and the Potency was inconclusive [inhibitor, single point]. For `COc1ccc(C(=O)c2oc3ccccc3c2NC(=O)COc2ccccc2)cc1`, the “activity change, negative = inhibition” value was inactive: 14.2%. `COc1ccc(-n2c(SCC(=O)Nc3cc(C)on3)nc3ccc(O)cc3c2=O)cc1OC` was tested, and the Potency was inconclusive [inhibitor, single point]. `FC(F)Oc1ccc(NC(=S)NC2CCSc3ccccc32)cc1` (stereo unspecified) was tested, and the “activity change, negative = inhibition” value was inactive: -8.27%. In the case of `CCc1ccccc1NC(=O)CSc1nc(-c2ccccc2)nn1C(=O)c1cccc([N+](=O)[O-])c1`, the Potency is reported as inconclusive [inhibitor, full curve, poor fit]. In the case of `COc1cc2c(cc1OC)C1O[C@](c3ccsc3)(C2)OC2=C1C(=O)CC(C)(C)C2`, the Potency is reported as inconclusive [inhibitor, full curve, poor fit]. `Fc1ccc(Nc2nc(N3CCOCC3)c3ccccc3n2)cc1` was tested, and the Potency was inconclusive [inhibitor, full curve, poor fit]. `CS(=O)(=O)c1ccc(S(=O)(=O)N2CCC(CO)(CCCc3ccccc3)CC2)cc1` was tested, and the “activity change, negative = inhibition” value was inactive: -4.31%. With `COc1cc(C2C=C(Nc3ccccc3)C(=O)N2c2ccccc2)ccc1O` (stereo unspecified) the Potency was inconclusive [inhibitor, full curve]. In the case of `CCCN1C(=O)CC(C(=O)OC)=C1C`, the Potency is reported as inconclusive [inhibitor, full curve, poor fit]. For `CCOc1cc(N2CCOCC2)c(OCC)cc1NC(=O)C1CC(=O)N(c2ccc(C)cc2)C1` (stereo unspecified), the Potency was inconclusive [inhibitor, full curve, poor fit]. For `CC1=CC(C)=Nc2ccc(C)cc2N1`, the Potency was “inactive”. With `O=C1Nc2ccccc2Oc2cc([N+](=O)[O-])ccc21` the “activity change, negative = inhibition” value was inactive: 1.73%. With `COc1ccc(-c2ccc3nnc(SCC(=O)N4CCCC4)n3n2)cc1` the Potency was inconclusive [inhibitor, full curve, poor fit]. With `CC(NS(=O)(=O)c1ccc(CCC(=O)N2CCN(C)CC2)cc1)c1ccccc1` (stereo unspecified) the Potency was inconclusive [inhibitor, full curve, poor fit]. In the case of `CCCCc1nc2cc(C(=O)N3CCCCC3C(=O)OC)ccc2o1` (stereo unspecified), the Potency is reported as inconclusive [inhibitor, full curve, poor fit]. `CC1(C)N([O-])C(c2ccccc2)=C[N+](=O)C1(C)C` was tested, and the Potency was inconclusive [inhibitor, full curve, poor fit]. With `CC1CCCCC1NC(=O)/C(C#N)=C/c1ccccc1F` (stereo unspecified) the Potency was inconclusive [inhibitor, full curve, poor fit]. `[O-]/[N+](=C\c1ccccc1)[C@@H]1CCCC[C@@H]1/[N+]([O-])=C/c1ccccc1` was tested, and the Potency was inconclusive [inhibitor, full curve, poor fit]. In the case of `CCN(CC)c1ccc(NC(=O)C2=CCN(S(=O)(=O)c3ccc(F)cc3)CC2)c(C)c1`, the Potency is reported as inconclusive [inhibitor, full curve]. For `Cc1cc(C)n(C(=O)/C(C#N)=N/Nc2cc(Cl)cc(Cl)c2)n1`, the Potency was inconclusive [inhibitor, full curve]. With `CC1CCCC(C)N1C(=O)CSc1nnc(-c2ccco2)n1C` (stereo unspecified) the “activity change, negative = inhibition” value was inactive: 5.9%. For `Brc1ccc2[nH]ncc2c1`, the Potency was inconclusive [inhibitor, full curve]. For `Cc1cccc(OCc2ccc(C(=O)Nc3ccc(F)cc3)cc2)c1`, the Potency was inconclusive [inhibitor, single point]. `CC(NC(=O)Nc1ccc(Cl)cc1)c1ccc2c(c1)OCO2` (stereo unspecified) was tested, and the Potency was inconclusive [inhibitor, full curve]. For `NC(=O)CCCn1c(C(=O)c2ccc(Cl)cc2)c2ccc([N+](=O)[O-])cc2[n+]1[O-]`, the “activity change, negative = inhibition” value was inactive: -14%. With `C=C(C)CNC(=S)N=Nc1c(O)[nH]c2ccc([N+](=O)[O-])cc12` the “activity change, negative = inhibition” value was inactive: -0.972%. `Cn1c(=O)c(=O)n(C)c2cc(S(=O)(=O)N3CCCCCC3)ccc21` was tested, and the Potency was inconclusive [inhibitor, full curve, poor fit]. In the case of `COc1cccc(C2c3c(oc4ccc(Cl)cc4c3=O)C(=O)N2c2cc(C)on2)c1OC` (stereo unspecified), the Potency is reported as inconclusive [inhibitor, full curve, poor fit]. In the case of `CC(=O)N(C)c1ccc(NC(=O)COc2ccc(Br)cc2C)cc1`, the Potency is reported as inconclusive [inhibitor, partial curve]. `CCC1Nc2ncnc(N3CCCCC3)c2N(Cc2ccccc2)C1=O` (stereo unspecified) was tested, and the Potency was inconclusive [inhibitor, full curve]. In the case of `COC(=O)CN1C(=O)[C@H]2[C@@H](c3ccc(C)o3)N3C(=O)CN(CCO)C(=O)[C@@]3(C)[C@H]2C1=O`, the Potency is reported as inconclusive [inhibitor, full curve, poor fit]. `CC(C)c1ccc(-c2nnc(SCC(=O)NC3CC3)n2C)cc1` was tested, and the Potency was inconclusive [inhibitor, single point].
